Data reported in PubChem BioAssay AID1346428 (National Center for Advancing Translational Sciences (NCATS), 2018).
“And” between values parts separate entries of the source, which are not always exact repeats. Equal entries are not always repeated. Among all 48,000 compounds or so, about 1,200 (2.5%) were called active. Inconclusive results (about 2%) are left out.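 How the source made its calls: active means activation of at least 60% and not above a set upper limit (about 1 call in 100 departs from these limits); inconclusive means activation of 40% to 60%, or above that upper limit; inactive means activation under 40%.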 This is one part of the list. More than one record can exist for a structure, and the calls need not agree.
Further: 0% is about no effect.

These molecules were tested against Probable G-protein coupled receptor 32 (Homo sapiens) (UniProt O75388) (assay: qHTS for Agonists of Human Resolvin D1 Receptor DRV1). Details: CHO-K1 GPR32 beta-arrestin PathHunter luminescence, 90 min; at 76.9 µM; stronger effect = higher value; zero percent set by DMSO-only wells.
UniProt O75388, sequence (O75388 whole entry, looked up): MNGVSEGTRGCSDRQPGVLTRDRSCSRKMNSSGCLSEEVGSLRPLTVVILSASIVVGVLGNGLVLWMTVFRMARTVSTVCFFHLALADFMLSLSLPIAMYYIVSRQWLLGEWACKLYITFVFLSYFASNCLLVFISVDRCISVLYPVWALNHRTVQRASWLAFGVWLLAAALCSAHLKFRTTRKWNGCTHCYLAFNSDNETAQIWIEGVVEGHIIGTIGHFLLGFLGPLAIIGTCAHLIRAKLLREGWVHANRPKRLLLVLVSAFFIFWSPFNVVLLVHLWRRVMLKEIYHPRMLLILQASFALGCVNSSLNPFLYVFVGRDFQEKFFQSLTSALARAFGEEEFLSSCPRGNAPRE
Method in brief: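 Step 1: seed CHO-K1 GPR32 beta-arrestin cells, 2,500/well, overnight at 37 °C. Step 2: add compounds, 90 min at 37 °C. Step 3: detection reagent, 1 h ambient, then luminescence.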
For `C[C@]12Cc3nonc3C[C@@H]1CC[C@@H]1[C@@H]2CC[C@@]2(C)[C@H]1CC[C@]2(C)O`, the activation was active: 65.4%. With `C=C1CC[C@@]2(O)[C@H]3Cc4ccc(O)c5c4[C@@]2(CCN3CC2CC2)[C@H]1O5` the activation was inactive: 8.58%. In the case of `O=C(COc1ccccc1[N+](=O)[O-])N1CCN(CCc2ccccn2)CC1`, the activation is reported as inactive: 0.254%. In the case of `Cc1ccccc1-n1c(/C=C/c2ccccc2F)nc2ccccc2c1=O`, the activation is reported as inactive: -19.6%. `O=C(Nc1ccccc1C(F)(F)F)c1cccn(Cc2ccccc2)c1=O` was tested, and the activation was inactive: -1.22%. With `Cc1ncsc1CCCl` the activation was inactive: 31.2% and inactive: 12.4%. For `CCCCCCC(C)(C)c1ccc([C@@H]2C[C@H](O)CC[C@H]2CCCO)c(O)c1`, the activation was inactive: -1.29%. With `C[C@]12Cc3cn[nH]c3C[C@@H]1CC[C@@H]1[C@@H]2CC[C@@]2(C)[C@H]1CC[C@]2(C)O` the activation was inactive: -36.4%. `CC(O)(CS(=O)(=O)c1ccc(F)cc1)C(=O)Nc1ccc(C#N)c(C(F)(F)F)c1` (stereo not drawn) was tested, and the activation was inactive: 8.2%. With `C=CCN1CC[C@]23c4c5ccc(O)c4O[C@@H]2/C(=N/N=C2\CC[C@@]4(O)C6Cc7ccc(O)c8c7[C@@]4(CCN6CC=C)[C@@H]2O8)CC[C@@]3(O)C1C5` the activation was inactive: -15.2%. For `CC1=C(C(=O)O)N2C(=O)[C@@H](N)[C@H]2SC1`, the activation was inactive: -12.7%. For `CCCn1c(=O)c2[nH]c(C3CCCC3)nc2n(CCCOC(=O)c2ccc(S(=O)(=O)F)cc2)c1=O`, the activation was inactive: -23.7%. For `CNC(=O)Oc1cccc2ccccc12`, the activation was inactive: 5.17%. `N#Cc1cc2c(nc1SCC(=O)Nc1ccc(Cl)c(C(F)(F)F)c1)C1CCN2CC1` was tested, and the activation was inactive: -5.41%. With `CCOC(=O)c1cncn1C(C)c1ccccc1` (stereo not drawn) the activation was inactive: -10.6%. For `CC(C)c1cccc(C(C)C)c1O`, the activation was inactive: 14.7% and inactive: -15.8%. `Clc1ccc(COC(Cn2ccnc2)c2ccc(Cl)cc2Cl)cc1` (stereo not drawn) was tested, and the activation was inactive: -65.6%. For `CC#C[C@]1(O)CC[C@H]2[C@@H]3C[C@H](C)C4=CC(=O)CC[C@]4(C)[C@H]3CC[C@@]21C`, the activation was inactive: 2%. `CC(=O)[C@H]1CCC2C3CC[C@H]4C[C@H](O)CC[C@]4(C)C3CC[C@@]21C` (stereo partly drawn) was tested, and the activation was inactive: 1.31%. For `Cc1ccc(CNC(=O)CCCn2c(=O)c3sccc3n(CC(=O)Nc3c(C)cccc3C)c2=O)cc1`, the activation was inactive: -20%. With `Cc1ccc(Cn2cccc(C(=O)Nc3ccc(C)c(Cl)c3)c2=O)cc1` the activation was inactive: 21.8%. In the case of `CCN[C@H](C)Cc1cccc(C(F)(F)F)c1`, the activation is reported as inactive: -45.1%. For `COc1ccc(C2CC(=O)Oc3c2c(=O)oc2ccccc32)c(OC)c1OC` (stereo not drawn), the activation was inactive: 15.3%. For `CCCCCCCCCC(=O)O[C@H]1CC[C@H]2[C@@H]3CCC4=CC(=O)CC[C@@H]4[C@H]3CC[C@]12C`, the activation was inactive: -45.1%. `CCCCCCCCCCCCCCCC[N+](C)(C)C` was tested, and the activation was inactive: -5.38%. In the case of `CN1C[C@H](CNC(=O)OCc2ccccc2)C[C@@H]2c3cccc4c3c(cn4C)C[C@H]21`, the activation is reported as active: 79.5% and inactive: -22.2%. `Cc1cccc(-n2c(/C=C\c3cccc(Br)c3)nc3ccccc3c2=O)c1` was tested, and the activation was inactive: -7.53%. With `CCN1C[C@@]2(COC)C3[C@@H](OC)C4[C@@H]1C3([C@@H]1C[C@]3(O)[C@H](OC(=O)c5ccccc5)[C@@H]1[C@]4(OC(C)=O)[C@@H](O)[C@@H]3OC)[C@H](OC)C[C@H]2O` the activation was inactive: 7.01%. For `Cc1cc(OCC(=O)N2CCN(CCc3ccncc3)CC2)cc(C)c1Cl`, the activation was inactive: 27.7%. In the case of `O=C1NCN(c2ccccc2)C12CCN(CCCOc1ccc(F)cc1)CC2`, the activation is reported as inactive: -9.08%. `O=C(O)CC[N+](=O)[O-]` was tested, and the activation was inactive: -0.343%. For `OCc1cnc[nH]1`, the activation was inactive: 13.2%. For `CN1CCC(N(Cc2ccccc2)c2ccccc2)CC1`, the activation was inactive: -8.93%. For `C[C@@H]1O[C@@H](O[C@H]2C[C@@H](O)[C@]3(CO)[C@@H]4C(CC[C@]3(O)C2)[C@@]2(O)CC[C@H]([C@@H]3COC(=O)C3)[C@@]2(C)C[C@H]4O)[C@H](O)[C@H](O)[C@H]1O` (stereo partly drawn), the activation was inactive: 15%. In the case of `COc1ccc(OC)c(CCNCc2c(C(=O)O)c(C)n(Cc3ccc(F)cc3Cl)c2C)c1`, the activation is reported as inactive: -12.7%. In the case of `C[CH2][Hg][S]c1ccccc1C(=O)O`, the activation is reported as inactive: 35.9%. `COc1ccc2c(c1OC)CN1CCc3cc4c(cc3C1C2)OCO4` (stereo not drawn) was tested, and the activation was active: 68.5%. For `Cc1oc2cc3oc(=O)c(CCC(=O)N4CCCCC4)c(C)c3cc2c1C`, the activation was active: 86.7%. For `COP(=S)(OC)Oc1ccc(S(=O)(=O)N(C)C)cc1`, the activation was inactive: -2.76%. For `CCOc1ccc(CN(CCc2ccc3c(c2)OCO3)Cc2ccc(CC)cc2)cc1`, the activation was inactive: -44.1%. `CC[C@@H](CO)NC(=O)[C@@H]1C=C2c3cccc4c3c(cn4C)C[C@H]2N(C)C1` was tested, and the activation was inactive: -7.35% and inactive: 0.204%. `COc1ccccc1CN1CCN(C(=O)COc2cccc(C)c2)CC1` was tested, and the activation was inactive: -12.5%. With `COc1ccc(NC(=O)CN2C(=O)CN=C(c3ccccc3)c3ccccc32)c(OC)c1` the activation was inactive: -31.4%. For `COc1ccc2c(c1)[C@@]13CCCC[C@H]1[C@@H](C2)NCC3`, the activation was inactive: -13.9%. For `Cc1ccccc1-n1nc(C)c2c1NC(=O)CSC2c1ccccc1C(F)(F)F` (stereo not drawn), the activation was inactive: 13.4%. `c1ccc(CN2CCNCC2)cc1` was tested, and the activation was inactive: -11.5%. In the case of `Cc1cc([C@@H]2CCCN2C)on1`, the activation is reported as inactive: -2.26%. For `CN1C(=O)CN=C(c2ccccc2)c2cc(Cl)ccc21`, the activation was inactive: -8.3%. For `CC(Cc1ccccc1)NCc1ccccc1Cl` (stereo not drawn), the activation was inactive: 23.2%. With `C[C@]12CC[C@H](O)CC1=CC[C@@H]1[C@@H]2CC[C@]2(C)C(=O)CC[C@@H]12` the activation was active: 72.8%. For `c1ccc2c(c1)OCC(C1=NCCN1)O2` (stereo not drawn), the activation was inactive: 30.4% and inactive: -15.2%. In the case of `O=C(COc1ccccc1Cl)N1CCN(CCc2ccccn2)CC1`, the activation is reported as inactive: 1.02%. `CCOc1ccc(CN(CCc2ccc3c(c2)OCO3)Cc2cccc(Br)c2)cc1` was tested, and the activation was inactive: -36.7%. In the case of `Nc1ccc([N+](=O)[O-])cc1`, the activation is reported as inactive: -34.8%. For `CCCN(CCC)[C@H]1CCc2c(F)ccc(O)c2C1`, the activation was inactive: -4.33%. In the case of `Cc1nnc2n1-c1sc(CCC(=O)N3CCOCC3)cc1C(c1ccccc1Cl)=NC2`, the activation is reported as inactive: -5.79%. `CCCc1nc(SC)ncc1C(=O)Nc1ccc(Cl)cc1C(=O)c1ccccc1` was tested, and the activation was inactive: -3.38%. For `C/C=C(/C)C(=O)O[C@H]1C(C)=C2[C@H]([C@@H]1OC(=O)CCCCCCC)[C@@](C)(OC(C)=O)C[C@H](OC(=O)CCC)[C@@]1(O)[C@H]2OC(=O)[C@@]1(C)O`, the activation was inactive: -37%. `CC[N+]1(C)CCCC(OC(=O)C(O)(c2ccccc2)c2ccccc2)C1` (stereo not drawn) was tested, and the activation was inactive: -8.83%. `O=C(Nc1nc2ccccc2s1)c1cccn(Cc2ccccc2)c1=O` was tested, and the activation was inactive: -2.96%. `CC(Cc1ccccc1)N(C)Cc1ccco1` (stereo not drawn) was tested, and the activation was inactive: 2.13%. With `CN(C)CCc1c[nH]c2ccccc12` the activation was inactive: -1.57%. With `Cc1cccc(OC(C)C(=O)NCC2(N(C)C)CCCCC2)c1C` (stereo not drawn) the activation was inactive: 1.63%. With `Cc1nnc(NC(=O)c2cccn(Cc3ccccc3)c2=O)s1` the activation was inactive: 21.5%. With `c1ccc2cc(CC3=NCCN3)ccc2c1` the activation was inactive: -9.71%. In the case of `C[C@]12CC[C@H]3[C@@H](CCC4=CC(=O)CC[C@@H]43)[C@@H]1CC[C@@H]2OC(=O)CCc1ccco1`, the activation is reported as active: 119%. `COP(=S)(OC)Oc1ccc(Sc2ccc(OP(=S)(OC)OC)cc2)cc1` was tested, and the activation was inactive: 5.4%. `CCCCCCC(=O)CCCCCC/C=C/C[C@@H](O)[C@H](O)[C@@](N)(CO)C(=O)O` was tested, and the activation was inactive: 6.21%. In the case of `O=C(Nc1ccc(F)c([N+](=O)[O-])c1)c1cccn(Cc2ccccc2)c1=O`, the activation is reported as inactive: -0.362%. `Cc1cccc(OCC(=O)N2CCN(CCc3ccccn3)CC2)c1` was tested, and the activation was inactive: 5.12%. In the case of `Cc1ccc(-n2c(=O)[nH]c3ccc(Br)cc3c2=O)cc1`, the activation is reported as inactive: -62.9%. With `CC1(C)CC/C(=C/c2ccc(Cl)cc2)C1(O)Cn1cncn1` (stereo not drawn) the activation was inactive: 20.9%. With `COc1ccc2c(c1OC)C(=O)O[C@H]2[C@@H]1c2cc3c(cc2CCN1C)OCO3` the activation was inactive: -3.73% and inactive: 8.64%. `CCCN1CCO[C@@H]2c3cc(O)ccc3OC[C@H]21` was tested, and the activation was inactive: -7.02% and inactive: -15.8%. For `CC(=O)NC1CCSC1=O` (stereo not drawn), the activation was inactive: -35.9%. `O=C(COc1ccccc1F)N1CCN(Cc2cc(=O)n3nc(-c4ccccc4Cl)sc3n2)CC1` was tested, and the activation was inactive: -10.1%. `CCN(CC)CCN1C(=O)CN=C(c2ccccc2F)c2cc(Cl)ccc21` was tested, and the activation was inactive: 7.02%. In the case of `O=C(O)[C@@H]1CCN1`, the activation is reported as inactive: 6.43%. `O=C(NC(O)C(Cl)(Cl)Cl)NC(O)C(Cl)(Cl)Cl` (stereo not drawn) was tested, and the activation was inactive: 11.9%. With `Cc1ccc2c(c1)C(Cc1nc3ccccc3c(=O)n1-c1ccc(Br)cc1)C(=O)N2` (stereo not drawn) the activation was inactive: -20.5%. `Oc1ccccc1-c1ccccc1` was tested, and the activation was inactive: 2.58%. With `COc1ccc(NC(=O)c2sc3nc4c(cc3c2N)N2CCC4CC2)cc1OC` the activation was inactive: 45.2%. For `CCCCCCCCCC(CC)c1ccc(S(=O)(=O)O)cc1` (stereo not drawn), the activation was active: 101%. With `Cc1cccc(CN2CC=C(c3noc(CCC(=O)Nc4ccc(C)c(F)c4)n3)CC2)c1` the activation was active: 93.6%. With `CN1C2CCC1CC(OC(=O)c1cc(Cl)cc(Cl)c1)C2` (stereo not drawn) the activation was inactive: -10.8%. With `O=C(O)Cc1cnc[nH]1` the activation was inactive: 2.79%. With `c1ccc2c(c1)sc1ccccc12` the activation was inactive: -22.3%. In the case of `CC(C)(C)CC(C)(C)c1ccc(O)cc1`, the activation is reported as active: 116%.
